In PubChem BioAssay AID485281 (National Center for Advancing Translational Sciences (NCATS), 2010):
In all, about 350,000 compounds went through this assay and about 260 (0.074%) were called active. The inconclusive results got no clear call from the source; some entries with a clear call stand among them for comparison. The call rests on the fitted dose curve; in most records, active means well fitted inhibition curve with a large enough effect; inconclusive means small, poorly fitted or top-dose-only effect; inactive means no such curve, though single readings can be large or run the other way. Potencies of inconclusive entries are doubtful fits and often do not repeat.

The molecules below were run against Ferritin light chain (Equus caballus) (UniProt P02791) (assay: qHTS Assay for Identification of Novel General Anesthetics). Conditions: apoferritin/1-aminoanthracene competitive binding, fluorescence; activity change, negative = displacement: at 77.5 µM (top of the series).
Summary of the method: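 Probe: 1-aminoanthracene (50% saturated, PBS). Protein: horse-spleen apoferritin, 10 uM. Incubation: 10 min, room temperature. Detection: 380 nm excitation, 535 nm emission. Analysis: normalized response, four-parameter Hill.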
Further: nearly all actives have a fitted effect of over 20% in size.
On the % scale 0 is the no-effect control and ±100 the full control effect; potency means the concentration at half of the fitted maximal effect; tags describe the fitted curve by direction and shape.

UniProt P02791, sequence (P02791 whole entry, looked up): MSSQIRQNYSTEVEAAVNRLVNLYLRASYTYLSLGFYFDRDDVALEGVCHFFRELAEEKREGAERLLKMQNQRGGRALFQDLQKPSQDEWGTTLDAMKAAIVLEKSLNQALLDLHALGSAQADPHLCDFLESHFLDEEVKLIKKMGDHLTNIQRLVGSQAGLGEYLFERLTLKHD

Compound | activity change, negative = displacement | Potency
O=C(O)CCc1cc(I)c(O)c(I)c1 | inactive: -4.72% | –
O=C(CCN1CCN(c2ccccc2F)CC1)c1ccc(Br)cc1 | – | inconclusive: 31.6 µM [inhibitor, partial curve]
CN1CCCC(OC(=O)c2cc(Cl)ccc2Cl)C1 (configuration not stated) | – | inconclusive: 14.1 µM [inhibitor, partial curve, poor fit]
COc1cc(Cl)c(NC(=O)c2cc3ccccn3n2)c(OC)c1 | inactive: 2.31% | –
CN(C)CCCNc1cc(N2CCN(C3CCCCC3)CC2)c2noc3c2c1C(=O)c1ccccc1-3 | – | inconclusive: 35.5 µM [inhibitor, partial curve]
COc1ccc(Cn2ccnc2SCC(=O)Nc2nc3ccccc3s2)cc1 | – | inconclusive: 5.62 µM [inhibitor, partial curve]
N#Cc1cccc2c1-c1ccccc1/C2=N/NC(N)=S | inactive: -15.5% | –
COc1ccccc1CNc1ccccc1F | – | inconclusive: 14.1 µM [inhibitor, partial curve]
CCOC(=O)c1c(CC(C)C)csc1N | – | inconclusive: 35.5 µM [inhibitor, single point]
Cc1ccc(NC(=O)CN2C(=O)c3cccnc3Oc3ccc(Cl)cc32)cc1 | – | inconclusive: 22.4 µM [inhibitor, partial curve]
COc1ccc(Cl)cc1NC(=O)CNc1ccccc1F | – | inconclusive: 12.6 µM [inhibitor, partial curve]
O=C/C(=C\Nc1ccc(S(=O)(=O)CCO)cc1)c1nc2cc(Cl)ccc2o1 | – | inconclusive: 25.1 µM [inhibitor, partial curve]
Cc1cc(C)n2c(SCCC(C)C)nnc2n1 | – | inconclusive: 31.6 µM [inhibitor, partial curve]
Cc1cc(Nc2ccccc2C)n2nc(Cc3ccc(Cl)cc3)nc2n1 | – | inconclusive: 28.2 µM [inhibitor, partial curve]
O=C(/C=C/c1ccccc1)NCC(=O)N/N=C/c1ccccc1[N+](=O)[O-] | – | inconclusive: 31.6 µM [inhibitor, partial curve]
Clc1ccccc1CN1CCSCC1 | – | inconclusive: 31.6 µM [inhibitor, single point]
CCc1cccc(NC(=O)COc2ccccc2)c1 | – | inconclusive: 28.2 µM [inhibitor, partial curve]
COc1ccc(C2CC(=O)N3CN(C4CCCCC4)CSC3=C2C#N)c(OC)c1 (configuration not stated) | inactive: -11.1% | –
COc1cccc(C(=O)Nc2cccc(NC(=O)c3cccs3)c2)c1 | – | inconclusive: 15.8 µM [inhibitor, partial curve]
O=C(CN1C(=O)c2ccccc2C1=O)OC(C(=O)c1ccc(Cl)cc1)c1ccccc1 (configuration not stated) | – | inconclusive: 7.08 µM [inhibitor, partial curve]
Cc1ccccc1C(=O)N1CCN(c2ccc(NC(=O)c3ccccc3[N+](=O)[O-])cc2)CC1 | – | inconclusive: 31.6 µM [inhibitor, single point]

Compound | activity change, negative = displacement | Potency
O=C1CC(N2CCOCC2)C(=O)N1c1cc(Cl)cc(Cl)c1 (configuration not stated) | – | inconclusive: 39.8 µM [inhibitor, partial curve]
COc1ccccc1C1CC(=O)NC(C)=C1C(=O)OC1CCCCCC1 (configuration not stated) | inactive: -6.94% | –
C/C(=N\NC(=O)c1ccc(OC2CCCC2)cc1)c1ccc(O)cc1 | – | inconclusive: 15.8 µM [inhibitor, partial curve]
Cc1ccc(NC(=O)CN(C)C(=O)COC(=O)CNS(=O)(=O)c2ccc(Br)cc2Cl)cc1 | – | inconclusive: 44.7 µM [inhibitor, single point]
O=C(C1CCCN(S(=O)(=O)c2cccc3nonc23)C1)N1CCC(Cc2ccccc2)CC1 (configuration not stated) | – | inconclusive: 20 µM [inhibitor, partial curve]
NC(=O)CC(NC(=O)c1ccccc1)c1ccc(N2CCCCCCC2)c([N+](=O)[O-])c1 (configuration not stated) | – | inconclusive: 31.6 µM [inhibitor, partial curve]
O=c1c2ccccc2nnn1COc1ccc(F)cc1Cl | – | inconclusive: 28.2 µM [inhibitor, partial curve]
CC1CCC2C(=O)N(c3ccc(C(=O)Oc4cccc5cccnc45)cc3)C(=O)C2C1 (configuration not stated) | – | inconclusive: 50.1 µM [inhibitor, single point]
COC(=O)c1cc(NC(=O)c2ccccc2)c(=O)oc1C/C=N\OCc1ccc(Cl)cc1Cl | – | inconclusive: 17.8 µM [inhibitor, partial curve]
O=C(NC1(C(F)(F)F)NC(=O)N(CC2CCCCC2)C1=O)c1ccco1 (configuration not stated) | – | inconclusive: 39.8 µM [inhibitor, single point]
CCOc1ccc(C2CC(=O)Nc3nc(SCc4ccccc4C)[nH]c(=O)c32)cc1OC (configuration not stated) | inactive: -6.25% | –
O=C(CSc1ccc(Cl)cc1)N1CCN(c2ccc(Cl)cc2[N+](=O)[O-])CC1 | – | inconclusive: 31.6 µM [inhibitor, partial curve]
COc1ccc(-c2cc(-c3ccccc3)n[nH]2)c(O)c1 | – | inconclusive: 35.5 µM [inhibitor, partial curve]
C=CCOC(=O)c1cc(-c2ccc(/C=C3\C(=O)NC(=O)C(C#N)=C3C)o2)ccc1Cl | – | inconclusive: 22.4 µM [inhibitor, partial curve]
CCN1CCN(c2ccc([N+](=O)[O-])c(Sc3nc4ccccc4[nH]3)c2)CC1 | inactive: -5.16% | –
Clc1ccc(-c2nn3c(C4COc5ccccc5O4)nnc3s2)cc1 (configuration not stated) | – | inconclusive: 3.55 µM [inhibitor, full curve]
c1ccc2[nH]c(SCC3CCCCO3)nc2c1 (configuration not stated) | – | inconclusive: 44.7 µM [inhibitor, single point]
O=C(c1ccc2c3c(cccc13)CC2)C1CCCN(Cc2ccncc2)C1 (configuration not stated) | – | inconclusive: 35.5 µM [inhibitor, partial curve]
CCOc1ccc2c(c1)C(c1ccc(C)cc1)=NNC(c1ccc(OC)cc1)=N2 | – | inconclusive: 39.8 µM [inhibitor, partial curve]
N#Cc1sc(NCc2cccc(Cl)c2)nc1Cl | – | inconclusive: 50.1 µM [inhibitor, single point]
CCOC(=O)n1c(=O)n(Cc2ccccc2C)c2ccccc21 | – | inconclusive: 28.2 µM [inhibitor, single point]
